Assay results reported in the RNAGym collection of RNA variant scans (doi:10.7554/elife.90254).
Read counts are not given, so values of variants with three or more changes are uncertain.

B1: OR4K15 (parent)
chain: GUUAACGGUCAUAGGCCAUGGAAACUAGGAGCACCAUUUCGCUGCCAGUGAAGAAAUGAACAAAGAAAAUCUGGGCCAGGCAGGCAUCAAAAGAAAUAGUCUUGCGCUCAACCAGAAAGUCUGUAAUCAUUUUAAGGGUA

Variants of: B1
Assay: self-cleavage, relative activity (ratio to wild type); higher = more cleavage; in vitro, sequencing; the parent is a self-cleaving ribozyme
Work on GUUAACGGUCAUAGGCCAUGGAAACCAGGAGCACCAUUUCGCUGCCAGUGUAGAAAUGAACAAAGAAAAUCUGGGCCAGGCAGGCAUCAAAAGAAAUAGUCUUGCGCUCUACCAGAAAGUCUGUUAUCAUUUCGAGGGUA [U26C A51U A110U A125U U133C A134G] yielded a self-cleavage of 2.3.
Variant GUUAACGGUCAUAGGCCAUGGAAACUAGGAGCACCUUUUCGCUGCCAGUGGAGAAAUGAACUAAGAAAAUCUGGGCCAGGCAGGCAUCAAAAGCAAUAGUCUUGCGCUCAACCAGGAAGUCUGUAAUCAUUUUAAGGGUA [A36U A51G A62U A94C A116G] has a self-cleavage of 0.37.
GUUAACGGUCAUAGGCCAUGGAAACUAGGAGCACCAUUUCGCUGCCAGUGAAGAAAUGAACAAAGAAAAUCUGGGCCAGGCAGGCAUCAGGAGAAAUAGUCUUGCGCGCUACCAGAAAGUCUGUAAUCAUUUUAAGGGUA [A90G A91G U108G A110U] showed a self-cleavage of 0.
GUUAACGGUCAUAGGCCAUGGAAACUAGGAGCACCAUUUCGCUGCCAGUGAAGAAAUGAGCAAAGAAAAUCUGGGCCAGGCGGGCACCAAUAGAAAUAGUCUUGCGCUCAGCCAGAAAGUCUGUAAUCAUUUUAAGGGUA [A60G A82G U87C A91U A111G] showed a self-cleavage of 0.02.
Variant GUUAACGGUCAUAGGCCAUGGAAACUAGGAGCACCAUUUCGCCGCCAGUGAAGAAAUGAACAAAGAAAAUCUGGGCCAGGCAGGCAUCAAAAGAAAUAGUCUUGCGCCCAACCAGAGAGUCUGUAAUCAUUUUAAGGGUA [U43C U108C A117G] has a self-cleavage of 0.
GUUAACGGUCAUAGGCCAUGGAGACUAGGAGCACCAUUUCGCUGCCAGUGAAGAAAUAGACAAAGAAAAUCCGGGCCAGGCAGGCAUCAAAAGAAAUAGCCUUGCGCCCAACCAGAAAGUCUGCAAUCAUUUUAAGGGUA [A23G G58A A59G U72C U100C U108C U124C] showed a self-cleavage of 0.
Work on GUUAACGGUCAUAGGCCAUGGAACCUAGGAGCACCAUUUCGCUGCCAGUGAAGAAAUGGACAAAGAAAAUCUGGGCCAGGCAGGCAUCAAAGGAAAUAGUCUUGCGCUCGACCAGAAGGUCUGUAAUCAUUUUAAGGGUA [A24C A59G A92G A110G A118G] yielded a self-cleavage of 0.05.
Variant GUUAACGGUCAUAGGCCAUGGAAACUAGGAGCACCAUUUCGCUGCCAGUGAAGAAAUGAACAAAGGAAAUCAGGGCCAGGCAGGCAUCAAAAGAAAUAGUCUUGCGCUCAACCAGAAGUUCUGUAAUCAUUUUAAGGGUA [A66G U72A A118G G119U] has a self-cleavage of 0.16.
Variant GUUAACAGUCAUAGGCCAUGGAAACUAGGAGCACCAUUUCGCUGCCAGUGAAGAAAUGAACAAAGGAAAUCUGGGCCAGGCAGGCAUCAAAAGAAAUAGUCUUGCGCUCAACCAGAAAGUCUGUAAUCAUCUUAAGGGUA [G7A A66G U131C] has a self-cleavage of 1.01.
In the case of GUUAACGGUCAUAGGCCAUGGGAACUAGGAGCUCCAUUUCGCUGCCAGUGAAGAAAUGAACAACGAAAAUCUGGGCCAGGCAGGCAUCAAAGGAAAUUGUCUUGCGCUCAACCAGAAAGUCUGUAAUCAUUUUAAGGGUA [A22G A33U A64C A92G A98U], the self-cleavage is reported as 0.72.
GUUAACGGUCAUAGGCCAUGGAAACUAGGAGCACCAUUUCGCUGCCAGUGAAGAAAUGAACAUAGAAAAUCUGGGCCAGGCAGGCAUCAAAAGAAAUAGUCUUGCGCUCGCCCAGAAAGUCUGUAAUCAUUUUAAGGGUA [A63U A110G A111C] showed a self-cleavage of 0.04.
GUUAACGGUCAUAGGCCAUGGAAACUAGGAGCACCAUCUCGCUGCCAGCGAAGAAACGUACAAAGGAAAUCUGGGCCAGGCAGGCAUCAAAAGAAAUAGUCUUGCGCUCAACCAGAAAGUCUGUAAUCAUUUUAAGGGUA [U38C U49C U57C A59U A66G] showed a self-cleavage of 1.81.
In the case of GUUAACGGUCAUAGGCCAUGGAAACUAGGAGCACCAUCACGCAGCCAGUGAAGAAAUGGACAAAGAAAAUCUGGGCCAGGCAGGCAUCAAAGGAAAUAGUCUUGCGCUCAACCAGAAAGUCUGUAAUCAUUUUAAGGGUA [U38C U39A U43A A59G A92G], the self-cleavage is reported as 1.24.
Work on GUUAACGGUCAUAGGCCAUGGAAACUAGGAGCACCAUUUCGCUGCCUGUGAGGAAAUGAACAAAGAGAAUCUGGGCCAGGCAGGCAUCAAAAGGAAUAGUCUUGCGCUCAACCAGAAAGUCUGUAAUCAUUUUAAGGGUA [A47U A52G A67G A94G] yielded a self-cleavage of 0.65.
Work on GCUAACGGUCAUAGGCCAUGGAAACUAGGGGCACCAUUUCGCUGCCAGUGAAGAAAUGAACAAAGAUAAUCUGGGCCAGGCAGGCAUCAAAAGAAAUAGUCUUGCGCUCAACCAGAAAGUCUGUAAUCAUUUUAAGGGUA [U2C A30G A67U] yielded a self-cleavage of 1.65.
In the case of GUUAACGGUCAUGGGCCAUGGAAACUAGGAGCACCAUUUCGCUGCCAGUGAAGAAAUGAACAAAGAAAAUCUGGGCCAGACAGGCAUCAAAAGAAAUAGUCUCGCGCUCAACCAGAAAGUCUGUAAUCAUCUUAAGGGUA [A13G G80A U103C U131C], the self-cleavage is reported as 0.31.
In the case of GUUAACGGUCAUAGGCCAUGGAAACUAGGAGCACCAUUUCGCUGCCAGUGAAGAAAUGAGCAAAGAGAAUCUGGGCCAGGCAGGCAUCAAAAGAAAUAGUCUUGCGCUCAACCAGAGAGUCUGUAAUCAUUUUAAGGGUA [A60G A67G A117G], the self-cleavage is reported as 1.83.
Work on GCUAACGGUCAUAGGCCAUGGAAACUAGGAGCACCAUUUCGCUGCCAGUGAAGAAAUGAACAAAGAAAAUCUGGGCCAGGCAGGCAUCAAAAGAAAUAGUCUUGCGCUCAACCAGAAAGUCCGUAAUCAUCUUAAGGGUA [U2C U122C U131C] yielded a self-cleavage of 0.91.
GUUAGCGGUCAUAGGCCAUGGAAACUAGGAGCACCAUUUCGCUGCCAGUGAAGAAAAGAACAAAGAAAAUCUGGGCCAGGCAGGCAUCAAAAGAAAUAGUCUUGCGCUCAACCAGAAAGCCUGUAAUCAUUUUAAGGGUA [A5G U57A U120C] gave a self-cleavage of 0.79.
With GUUAACGGUCAUAGGCCAUGGGAACUAGGAGCACCAUUCCGCUGCCAGUGAAGAAAUGAACAAAGAAAAUCUGGGCCAGGCAGGCAUCAAAAGAAAUAGUCUUGCGCUCAACCAGAAAGACUGUAACCAUUUUAAGGGUA [A22G U39C U120A U127C] the self-cleavage was 0.53.
GUUAACGGUCAUUGGCCAUGGAAACUAGGAGCACCAUUUCGCUGCCAGUGAAGAAAUGAACAAAGAAAAUCAGGGCCGGGCAGGCAUCAAAAGAAAUAGUCUUGCGCUCAACCAGAAUGUCUGUAAUCAUUUUAAGGGUA [A13U U72A A78G A118U] showed a self-cleavage of 0.08.
